Assay results: ChEMBL document CHEMBL4888484, “Replenishing the malaria drug discovery pipeline: Screening and hit evaluation of the MMV Hit Generation Library 1 (HGL1) against asexual blood stage Plasmodium falciparum ,using a nano luciferase reporter read-out” (2022)
About 540 (0.36%) of roughly 150,000 compounds showed an effect of 50% or more. The list shows a part of the results.

Each compound was assayed on Plasmodium falciparum (assay: Primary screen in NF54 nanoGlo assay, in single point, at 2uM, 72h; a lower Z score goes with more inhibition). Details: timepoint 72 hour.
Type: functional, Erythrocyte

Structure (SMILES) | % Inhibition [%] | Z score
CC1(CNC(=O)c2ccccn2)CCOCC1 | -9 | 1.55
Cc1ccc(OCc2cc(C(=O)N(C)[C@@H](C)c3c(C)nn(C)c3C)no2)cn1 | 1 | -0.11
CCN(CC)Cc1nc(-c2ccsc2)no1 | -2 | 0.19
Cn1cc(N2C[C@@H](C(=O)N3CC(C(F)(F)F)C3)CCC2=O)cn1 | -4 | 0.62
CN(C)C(=O)N1CCC2(CC1)C(=O)N(CC(=O)NCc1ccc(F)cc1)CN2c1ccccc1 | -9 | 0.88
Cc1ccc(NC[C@H]2CCN(c3cc(C)nc(N)n3)C2)nc1 | 10 | -1.52
O=C(CS(=O)(=O)C1CC1)N1CCN2CCOc3cccc1c32 | -10 | 1.64
CCN1CCN(C(=O)c2cccc(-c3cc(N)nc(N(CC)CC)n3)c2)CC1 | -5 | 0.71
CCC1CCCCC1OCC(=O)NC1COc2ccccc2C1=O (stereo not given) | -3 | 0.44
CC(C)C(=O)N1CCCCC[C@H]1c1nnc(-c2ccccc2)o1 | -8 | 1.56
CCN(CC)C(=O)[C@@H]1CCC[C@@H](NCc2cccc(Cl)c2)CN(C)C(=O)C1 | -7 | 1.31
CN(C(=O)Nc1cn[nH]c1)[C@H](c1ccncc1)c1ccc(Cl)cc1 | -2 | 0.24
CCc1ccc(-c2cc(C(F)(F)F)on2)cc1S(=O)(=O)N1CCN(c2cccc(Cl)c2)CC1 | -7 | 1.19
Cc1nc2cc(CNC(=O)c3ccccc3N3CCCC3)ccc2n1C | -16 | 3.08
O=C(c1cc(Cl)c[nH]1)N1CCO[C@H](c2ncon2)C1 | 33 | -3.68
CC(=O)c1c(F)cccc1N1CCC[C@H](CN2CCOCC2)C1 | -7 | 0.74
CN1CC[C@H](N(C)Cc2cnc(-c3ccccc3)s2)C1 | 3 | -0.44
CNC(=O)[C@@H]1C[C@H](n2cc(-c3ccc(CN4Cc5ccccc5C4)cc3)nn2)CN1 | -6 | 0.81
Cc1nc2ncnn2c(N2CCN(Cc3ccc(C(C)(C)C)cc3)CC2)c1Cc1ccccc1 | 1 | -0.13
CCc1ccccc1C(=O)NC[C@H]1CC[C@H](CN)CC1 | 39 | -4.41
O=C(c1ccc2c(c1)CCCC2)N1CCC[C@H]1c1nc2ccccc2s1 | 2 | -0.19
COc1ccccc1-c1nc2cnccn2c1NCCC(=O)N1CCCC1 | -24 | 3.39

Structure (SMILES) | % Inhibition [%] | Z score
C#CCN(CC#N)C(=O)c1c(F)cccc1Br | 5 | -0.57
CCCNC(=O)Nc1cccc(OC(=O)Cc2c(C)nn(C)c2C)c1 | -11 | 1.1
O=C1NCCc2ccc(CNC(=O)c3ccc(C4CC4)nc3O)cc21 | -13 | 2.13
Nc1nccnc1C(=O)Nc1cccc(N2CCCC2=O)c1 | -12 | 2.25
O=C(Nc1ccc(-n2cnnn2)cc1)c1cnccn1 | -11 | 1.8
CC(=O)NCCc1nc(CC(C)C)nn1-c1ccccn1 | 12 | -1.6
COc1ccc(C(=O)N2CCC(C(=O)NC(C3CC3)C3CC3)CC2)c2ccccc12 | -6 | 0.93
NC(=O)c1cc(NC(=O)C2=NN(c3ccccc3)C(=O)CC2)c[nH]1 | 1 | -0.07
COCc1cc(N(C)C[C@H]2COCCO2)ncn1 | 10 | -1.83
COc1ccc2c(c1)sc(/C=C/c1ccc(O)cc1)[n+]2C | -12 | 1.62
O=C(CC1(N2Cc3ccccc3C2=O)CCCCC1)NCCCc1ccccc1 | -10 | 1.39
C[C@H](NC(=O)CCc1nncn1C)C1=CCCCC1 | -3 | 0.51
CN(C)C1=NC2(CCN(Cc3ccc(S(C)(=O)=O)cc3)CC2)C(=O)N1 | -1 | 0.19
CC(=O)NC(N1CCOCC1)(C(F)(F)F)C(F)(F)F | 4 | -0.56
CCOC(=O)[C@H](C)n1cnc(-c2ccccc2)c1-c1c(C)nn(C(C)C)c1C | -1 | 0.07
Cc1ccc([C@H](CNC(=O)COc2ccccc2C)N2CCCC2)o1 | -6 | 1.04
O=C(NCc1ccc(N2CCCCC2)nc1)c1cnccn1 | -15 | 2.76
CC(C)(C)C(=O)Nc1nnc([C@H]2CC(=O)N(c3ccc(OC(F)(F)F)cc3)C2)o1 | -8 | 1.04
CC[C@@H](c1ccncc1)n1ccnc1-c1cccc2nonc12 | -7 | 1.02
NC(=O)[C@@H]1CCCN1C(=O)c1cn(-c2cccc(Cl)c2F)nn1 | -9 | 1.38
COc1cc(NC(=O)C(C)Oc2ccccc2)c(OC)cc1NC(=O)C(C)Oc1ccccc1 (stereo not given) | -2 | 0.25
Oc1ccc(CNc2ccc3c[nH]nc3c2)cc1 | -3 | 0.67

Structure (SMILES) | % Inhibition [%] | Z score
O=C(C[n+]1cccc2cc(Cl)ccc21)c1ccc2c(c1)CCCC2 | 6 | -0.69
CCN(Cn1c(=S)sc2ccccc21)C1CCCCC1 | -13 | 2.16
FC(F)(F)c1csc([C@H]2CCCN(CCc3ccncc3)C2)n1 | -19 | 1.76
CC(C)CC(C)OCCC(=O)N1CCNC(=O)C1C (stereo not given) | -10 | 0.99
N#CCCN(CC1CCC1)C(=O)CCOc1ccccc1Cl | -1 | 0.09
Cc1ccn2c(C(=O)N3CCC[C@H](c4cc(O)ncn4)C3)c(C)nc2c1 | -4 | 0.49
C[C@H](NC(=O)Cn1cnnn1)c1nc(-c2ccccn2)no1 | -20 | 1.98
CN1c2ccccc2N(C2CCN(C(=O)c3cccc(C#N)c3)CC2)S1(=O)=O | -7 | 1.06
Cc1csc(NC(=O)N2CCC[C@H]2C(=O)OC(C)(C)C)n1 | 5 | -0.8
COc1ccc(C(=O)N[C@H]2CCCc3cn(C4CCCC4)nc32)nn1 | -10 | 1.27
CCCn1ccnc1-c1c(-c2ccccc2)ncn1CC(=O)O | -12 | 1.15
Nc1ccccc1-c1nnc(-c2ccc(-c3ccccc3)cc2)o1 | -8 | 0.97
Cc1ccc(Cl)c(S(=O)(=O)Nc2cnn([C@@H](C)C3CC3)c2)c1 | -4 | 0.63
Cc1ccc(CC(=O)N(C)Cc2ncon2)cc1Cl | 6 | -0.74
CC(=O)NC[C@@H]1CN(C(=O)COc2cc(F)cc(F)c2)C[C@H]1c1cncn1C | -10 | 1.49
CCn1cnc2c(c1=O)CCN(C(=O)c1cc(C)n(-c3ccc(F)cc3)n1)C2 | -14 | 1.95
CC(C)(C)c1ccc(CNc2nc3c(cnn3C(C)(C)C)c(=O)[nH]2)o1 | -6 | 1.04
CN(Cc1nc2ccccc2c(=O)[nH]1)C(=O)c1cccnc1 | -8 | 1.53
Cc1cccc(C)c1OCCN(C)CC#N | 3 | -0.42
Cc1oc2ncnc(OCC(=O)Nc3ccccc3F)c2c1C | -8 | 1.1
CNC(=O)[C@@H]1C[C@@H](NCc2cc(F)ccc2F)CN1C1Cc2ccccc2C1 | 3 | -0.49
CCOC(=O)N1CCC(N2CCc3[nH]nc(CC)c3C2)CC1 | -2 | 0.29

Structure (SMILES) | % Inhibition [%] | Z score
C[C@H](Oc1ccc(-c2ccccc2)cc1)C(=O)Nc1ccc(S(=O)(=O)N2CCN(C)CC2)cc1 | -1 | 0.15
CC[C@@H](Cn1ccnc1)NC(=O)c1c[nH]c2cc(C)nn2c1=O | -17 | 1.63
CCCn1cnc(NC(=O)NC2CCN(Cc3ccccc3)CC2)n1 | 2 | -0.39
CCc1onc(C)c1NC(=O)NCc1c(Cl)cccc1OC | -52 | 6.05
O=C(Nc1ccc(-c2cc[nH]n2)cc1)c1ccccc1Cl | -10 | 1.62
CO[C@@H](CS(=O)(=O)Nc1c[nH]c(=O)c(C)c1)C(C)C | -15 | 1.31
Cc1cc(C(=O)N2CCC([C@H]3[C@@H](Oc4ccccc4)CN3C(C)C)CC2)[nH]n1 | 8 | -1.47
Oc1ccc([C@@H](O)Cn2cc(CCc3ccccc3)nn2)cc1 | 6 | -1.06
CNc1cc(C(=O)N(C)[C@@H](C)c2nccs2)ccn1 | -13 | 1.84
CC1CCCC1NC(=O)NCC(C)(O)C1CCCCC1 (stereo not given) | -1 | 0.18
Cc1n[nH]c(C)c1NC(=O)CN1CCS(=O)(=O)C(C)C1C (stereo not given) | -10 | 1.05
CCC1CN(C(=O)C2(C#N)CCCC2)CC1N(C)C (stereo not given) | -3 | 0.35
CC(=O)Nc1c(-c2ccccn2)nsc1C(=O)NCc1cccs1 | 0 | 0.08
c1ccc(NCc2cccc(COC3CCOCC3)c2)nc1 | -5 | 0.7
Cc1noc2ncnc(N[C@H](CO)Cc3c[nH]c4ccccc34)c12 | -2 | 0.37
Cc1cnc([C@H](C)NC(=O)c2conc2C(C)(C)N)s1 | 35 | -0.82
COC[C@H]1C[C@@H](NS(=O)(=O)c2ccccc2)[C@H](O)[C@@H]1O | -4 | 0.62
CC[C@H]1COCCN1C(=O)c1ccnc(NC)c1 | -24 | 3.61
Cc1ccc(C(=O)N2CCN(C)CC2)cc1-n1cnc2cccnc21 | -5 | 0.81
